According to the supplement of paper PMC11741623:
Some of the results follow. Interaction screen of human proteins with wild-type SARS-CoV-2 proteins by split-DHFR complementation in yeast, 1 µg/mL methotrexate. Value = fitness of the pair (three or more lineages) minus that of the viral protein without a human partner, on a scale set by negative (0) and fused positive (1) controls, mean of up to three cultures; higher = more likely to interact. Active = false discovery rate below 0.05 (one-sided t-test) in at least one culture. Nearly all pairs are not hits, and differences among them are mostly noise (correlation between cultures about 0.3); most hits were seen in one culture only. Human sequences are the Swiss-Prot entries looked up by gene name; the clone may be another isoform. NSP2 values were corrected by the authors for a growth advantage. Listed are human proteins with a hit and a random twelfth of the others.

Legend:
Experiment in all cases: yeast fitness gain over the viral ORF with no human partner (scaled fitness); higher = more likely to interact
[1] = biological target: SARS-CoV-2 M
Method: (§1)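 Split mouse DHFR complementation in pooled diploid yeast: human ORFeome clones carry one fragment and viral ORFs the other; barcoded lineages compete in 1 µg/mL methotrexate and fitness is read by barcode sequencing in up to three cultures.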

[2] = biological target: SARS-CoV-2 N
Method: as §1

[3] = biological target: SARS-CoV-2 NSP1
Method: as §1

[4] = biological target: SARS-CoV-2 NSP10
Method: as §1

[5] = biological target: SARS-CoV-2 NSP12
Method: as §1

[6] = biological target: SARS-CoV-2 NSP13
Method: as §1

[7] = biological target: SARS-CoV-2 NSP14
Method: as §1

[8] = biological target: SARS-CoV-2 NSP15
Method: as §1

[9] = biological target: SARS-CoV-2 NSP16
Method: as §1

[10] = biological target: SARS-CoV-2 NSP2
Method: as §1

[11] = biological target: SARS-CoV-2 NSP4
Method: as §1

[12] = biological target: SARS-CoV-2 NSP5
Method: as §1

[13] = biological target: SARS-CoV-2 NSP6
Method: as §1

[14] = biological target: SARS-CoV-2 NSP7
Method: as §1

[15] = biological target: SARS-CoV-2 NSP8
Method: as §1

[16] = biological target: SARS-CoV-2 NSP9
Method: as §1

[17] = biological target: SARS-CoV-2 ORF10
Method: as §1

[18] = biological target: SARS-CoV-2 ORF3A
Method: as §1

[19] = biological target: SARS-CoV-2 ORF3B
Method: as §1

[20] = biological target: SARS-CoV-2 ORF6
Method: as §1

[21] = biological target: SARS-CoV-2 ORF7A
Method: as §1

[22] = biological target: SARS-CoV-2 ORF7B
Method: as §1

[23] = biological target: SARS-CoV-2 ORF8
Method: as §1

[24] = biological target: SARS-CoV-2 ORF9B
Method: as §1

[25] = biological target: SARS-CoV-2 ORF9Bwu (the 73-codon ORF)
Method: as §1

[26] = biological target: SARS-CoV-2 S
Method: as §1

Measured: yeast fitness gain

B1: SCRG1, O75711 (protein)
chain: MKLMVLVFTIGLTLLLGVQAMPANRLSCYRKILKDHNCHNLPEGVADLTQIDVNVQDHFWDGKGCEMICYCNFSELLCCPKDVFFGPKISFVIPCNNQ
inactive: [1] 0.078 | [2] -0.0685 | [3] 0.0184 | [4] 0.0104 | [5] 0.0183 | [6] -0.0526 | [7] 0.0432 | [8] 0.034 | [9] -0.0314 | [10] -0.0741 | [11] 0.0207 | [12] -0.0937 | [13] -0.0607 | [14] -0.0484 | [15] -0.103 | [16] -0.214 | [17] 0.052 | [18] 0.058 | [19] 0.0491 | [20] -0.0282 | [21] 0.0462 | [22] -0.0618 | [23] -0.0284 | [24] 0.0103 | [25] -0.018 | [26] -0.00962

B2: SNAP29, O95721 (protein)
chain: MSAYPKSYNPFDDDGEDEGARPAPWRDARDLPDGPDAPADRQQYLRQEVLRRAEATAASTSRSLALMYESEKVGVASSEELARQRGVLERTEKMVDKMDQDLKISQKHINSIKSVFGGLVNYFKSKPVETPPEQNGTLTSQPNNRLKEAISTSKEQEAKYQASHPNLRKLDDTDPVPRGAGSAMSTDAYPKNPHLRAYHQKIDSNLDELSMGLGRLKDIALGMQTEIEEQDDILDRLTTKVDKLDVNIKSTERKVRQL
inactive: [1] -0.0078 | [2] 0.104 | [4] -0.0195 | [5] 0.0587 | [6] 0.0371 | [7] 0.0769 | [8] -0.0285 | [9] 0.116 | [10] -0.107 | [11] 0.0434 | [12] 0.0107 | [13] 0.00632 | [14] 0.00799 | [15] 0.131 | [16] 0.0698 | [17] -0.114 | [18] -0.0295 | [19] 0.0508 | [20] 0.0375 | [21] -0.0335 | [22] -0.00372 | [23] -0.000652 | [24] 0.0116 | [25] 0.0878 | [26] 0.055

B3: SYNGR2, O43760 (protein)
chain: MESGAYGAAKAGGSFDLRRFLTQPQVVARAVCLVFALIVFSCIYGEGYSNAHESKQMYCVFNRNEDACRYGSAIGVLAFLASAFFLVVDAYFPQISNATDRKYLVIGDLLFSALWTFLWFVGFCFLTNQWAVTNPKDVLVGADSVRAAITFSFFSIFSWGVLASLAYQRYKAGVDDFIQNYVDPTPDPNTAYASYPGASVDNYQQPPFTQNAETTEGYQPPPVY
inactive: [1] -0.0842 | [2] 0.0358 | [3] -0.0595 | [4] -0.0434 | [5] 0.0698 | [6] 0.00557 | [8] -0.0671 | [9] -0.167 | [10] -0.106 | [12] -0.00173 | [13] -0.285 | [14] -0.0849 | [15] -0.109 | [17] -0.103 | [18] -0.0045 | [19] -0.0838 | [20] -0.0236 | [21] -0.0247 | [22] -0.00851 | [23] 0.0428 | [24] -0.0159 | [25] -0.00541 | [26] -0.154

B4: VIT, Q6UXI7 (protein)
chain: MRTVVLTMKASVIEMFLVLLVTGVHSNKETAKKIKRPKFTVPQINCDVKAGKIIDPEFIVKCPAGCQDPKYHVYGTDVYASYSSVCGAAVHSGVLDNSGGKILVRKVAGQSGYKGSYSNGVQSLSLPRWRESFIVLESKPKKGVTYPSALTYSSSKSPAAQAGETTKAYQRPPIPGTTAQPVTLMQLLAVTVAVATPTTLPRPSPSAASTTSIPRPQSVGHRSQEMDLWSTATYTSSQNRPRADPGIQRQDPSGAAFQKPVGADVSLGLVPKEELSTQSLEPVSLGDPNCKIDLSFLIDGSTSIGKRRFRIQKQLLADVAQALDIGPAGPLMGVVQYGDNPATHFNLKTHTNSRDLKTAIEKITQRGGLSNVGRAISFVTKNFFSKANGNRSGAPNVVVVMVDGWPTDKVEEASRLARESGINIFFITIEGAAENEKQYVVEPNFANKAVCRTNGFYSLHVQSWFGLHKTLQPLVKRVCDTDRLACSKTCLNSADIGFVIDGSSSVGTGNFRTVLQFVTNLTKEFEISDTDTRIGAVQYTYEQRLEFGFDKYSSKPDILNAIKRVGYWSGGTSTGAAINFALEQLFKKSKPNKRKLMILITDGRSYDDVRIPAMAAHLKGVITYAIGVAWAAQEELEVIATHPARDHSFFVDEFDNLHQYVPRIIQNICTEFNSQPRN
inactive: [1] -0.0184 | [2] 0.092 | [3] -0.0202 | [4] 0.0551 | [5] -0.00982 | [6] 0.0126 | [8] -0.0821 | [9] -0.0628 | [10] -0.156 | [12] 0.0292 | [13] 0.0653 | [14] 0.106 | [15] -0.0351 | [16] -0.0518 | [18] 0.0382 | [19] -0.000915 | [20] 0.0722 | [21] 0.0315 | [22] -0.0619 | [23] 0.0236 | [24] 0.11 | [25] 0.0607 | [26] -0.135
